Measurements from PMC6919601, “Identification of Plasmodium dipeptidyl aminopeptidase allosteric inhibitors by high throughput screening” (PLoS ONE, 2019).
“And” between values parts separate entries of the source, which are not always exact repeats. Equal values may be shown once. Among all 110,000 compounds or so, about 230 (0.21%) showed an effect of 50% or more. This is one part of the list.

target: DPAP1 (Plasmodium falciparum, UniProt Q8IIJ9); assay: primary screen, percent inhibition; read by cleavage of a fluorogenic dipeptide substrate; higher = more effect of the substance; set-up: species or system P. falciparum D10 trophozoite lysates; single well
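Note: 30 min substrate incubation versus DMSO and 10 µM JCP410 controls.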

Chain of DPAP1 (Q8IIJ9 whole entry, looked up): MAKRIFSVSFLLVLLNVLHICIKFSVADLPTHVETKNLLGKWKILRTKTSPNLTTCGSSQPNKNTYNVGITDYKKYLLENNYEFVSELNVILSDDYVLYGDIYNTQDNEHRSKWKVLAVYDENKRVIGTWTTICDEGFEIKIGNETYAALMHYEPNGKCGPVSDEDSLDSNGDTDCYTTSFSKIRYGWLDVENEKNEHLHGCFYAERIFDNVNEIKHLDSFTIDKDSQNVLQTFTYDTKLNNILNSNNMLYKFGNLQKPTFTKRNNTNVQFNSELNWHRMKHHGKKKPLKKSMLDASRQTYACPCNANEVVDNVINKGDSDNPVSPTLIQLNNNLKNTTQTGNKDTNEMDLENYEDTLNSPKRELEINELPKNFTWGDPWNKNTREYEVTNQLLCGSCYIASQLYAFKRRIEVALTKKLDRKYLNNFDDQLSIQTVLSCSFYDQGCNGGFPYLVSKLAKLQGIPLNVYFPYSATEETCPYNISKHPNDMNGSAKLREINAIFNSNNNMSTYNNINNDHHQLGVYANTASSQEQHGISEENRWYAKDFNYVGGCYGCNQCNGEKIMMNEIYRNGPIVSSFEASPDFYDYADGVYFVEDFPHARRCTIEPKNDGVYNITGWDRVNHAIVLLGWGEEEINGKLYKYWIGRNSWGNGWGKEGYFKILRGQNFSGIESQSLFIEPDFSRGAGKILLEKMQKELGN

SMILES	% Inhibition @ 10 uM
Cc1oc(-c2ccc(C(=O)N3CCOCC3)cc2)nc1CS(=O)c1ccccc1 (stereo not drawn)	4.44%
Cc1nc2ncccn2c1-c1csc(Nc2ccc(O)cc2)n1	2.65%
O=C(O)c1cnn2c(C(F)(F)F)cc(-c3ccccc3)nc12	-1.99%
COc1ccccc1C(=O)O/N=C(\N)c1ccccn1	-3.06%
CS(=O)(=O)CCC(C(=O)N1CCN(c2ccccn2)CC1)N1Cc2ccccc2C1=O (stereo not drawn)	3.62%
CC(C)=CCC/C(C)=C/CN(C)C1CCN(C)CC1	-7.02%
O=C(C1CCCN(S(=O)(=O)c2ccc3nc(O)ccc3c2)C1)N1CCCC1 (stereo not drawn)	-4.02%
CCCC[C@H](NC(=O)[C@H](CS(=O)(=O)Cc1ccccc1Cl)NC(=O)N1CCOCC1)C(=O)c1nc2ccccc2o1	-3.49%
COc1cc(/C=C2/C(=O)N=C(N)N2C)cc(OC)c1OC	-0.436% and -0.85%
O=C1NCCCC[C@@H]1NC1CCCCCCC1	-1.81%
COc1ccccc1/C=C/CNc1ccccc1Cl	5.03%
COc1ccc(CSC[C@H](NC(=O)c2ccccc2)C(=O)NCC#N)cc1	-6.98%
CCCOC(=O)c1ccc(NC(=O)c2cccc(C)c2)cc1	-1.62%
CCOc1ccc(CNCc2c(C(=O)O)c(C)n(Cc3ccccc3C)c2C)cc1	-1.92%
Cc1ccccc1CSc1ccc2nnc(CCNS(=O)(=O)c3ccccc3)n2n1	5.09%
CC[C@H](NC(=O)C(NC(=O)c1ccc(-c2ccccc2Cl)c(Cl)c1)C1CCCCC1)C(=O)c1nc2ccccc2o1 (stereo partly drawn)	-0.207%
CCOc1ccccc1C1CC(=O)NC(SCc2cccc3ccccc23)=C1C#N (stereo not drawn)	7.1%
CC1OC(Nc2cc(Cl)ccc2C(=O)O)C(O)C(O)C1O (stereo not drawn)	1.93%
Cc1ccc(C(=O)N/C(=C\c2ccco2)C(=O)NC2CCN(Cc3ccccc3)CC2)cc1C	-4.65%
CN1CCN(c2ccc([N+](=O)[O-])c(Sc3nc4ccccc4[nH]3)c2)CC1	-2.02%
CCOC(=O)C1=C(NC(=O)c2ccc(C)cc2)S/C(=C\c2ccc(O)c(OC)c2)C1=O	-1.92%
CC1CCCC(N(CCCNC(=O)c2noc3c2COc2ccccc2-3)Cc2ccco2)C1C (stereo not drawn)	33.9%
Cc1nn(-c2ccccc2)c2c1C1(C(=O)Nc3cc(Cl)ccc31)C(C#N)=C(N)O2 (stereo not drawn)	-0.725%
NC(CC(O)c1ccc([N+](=O)[O-])cc1)C(Cl)(Cl)Cl (stereo not drawn)	-1.29%
COc1cccc2c1OC1(C)CC2NC(=O)N1 (stereo not drawn)	0.738%

SMILES	% Inhibition @ 10 uM
COc1ccc2ncc(S(=O)(=O)c3ccc(C)cc3)c(N3CCC4(CC3)OCCO4)c2c1	-3.5%
Cc1ccc(NC(=O)c2ccccc2N(C)S(=O)(=O)c2ccccc2)c(C)c1	-1.51%
COc1ccc(CN2CCN(Cc3ccccc3Br)CC2)cc1	-7.09%
COc1ccccc1C(CNC(=O)c1oc2cc(C)c(C)cc2c1C)N(C)C (stereo not drawn)	2.41%
COc1ccc(/C=N/OCC(=O)Nc2sc3c(c2C#N)CC(C)(C)NC3(C)C)cc1OC	-5.26%
CCC(Sc1nc(C)c(Cc2ccccc2)c(O)n1)C(=O)O (stereo not drawn)	1.25%
CCn1c2ccccc2c2nnc(S)nc21	38%
CC12CN3CC(C)(CN(C1)C3c1ccccc1)C2=O (stereo not drawn)	-0.807%
COc1ccc(Br)cc1CN1CCN(Cc2ccc(OC)c(OC)c2OC)CC1	-1.6%
CN(CCCNC(=O)CCC(=O)N1Cc2ccccc2Oc2ncccc21)Cc1ccccc1	4.69%
O=C(NC1=NCCS1)c1sc2ccccc2c1Cl	3.82%
CCOc1ccc(Nc2nc(-c3ccccn3)cs2)cc1	-9.68%
Cc1cc(C)n(-c2ccccc2Cl)c(=O)c1C(=O)O	3.99%
Cc1oc(-c2cccs2)nc1CS(=O)CC(=O)NC1CCCC1 (stereo not drawn)	-0.138%
O=C(NCCc1ccc(Cl)cc1)c1ccc2c(c1)ncn2C1CCCC1	0.387%
NC(=O)Cn1c(S(=O)(=O)Cc2ccccc2)nc2ccccc21	1.62%
COc1cc(CNCCO)cc(Cl)c1OCc1ccccc1Cl	-6.43%
Cc1sc(NC(=O)C2CC2c2ccccc2)nc1-c1ccccc1 (stereo not drawn)	-0.67%
CCCN1C(=O)NC(C(F)(F)F)(C(F)(F)F)C2=C1CC(C)(C)CC2=O	1.91%
COn1c(-c2ccccc2)nc2c1CCc1nonc1-2	4.08%
Cc1cc2n(n1)CCCN2C(=O)CCC(=O)N1CCOCC1	1.63%
CCn1ncc(Br)c1C(=O)Nc1ccn(Cc2ccccc2)n1	-3.18%
CCC(C)NC(=O)C(=O)Nc1cccc(Cl)c1 (stereo not drawn)	2.94%
CC1=C(C(=O)OCC(Cl)(Cl)Cl)C(c2cccc3ccccc23)NC(=O)N1 (stereo not drawn)	20.5%
Cc1ccccc1OCc1nc(C#N)c(N2CCCC2)o1	-7.55%

SMILES	% Inhibition @ 10 uM
O=C(NCCC1=CCCCC1)C1CCCN(c2nc3ccccc3o2)C1 (stereo not drawn)	-1.34%
Cc1sc(NC(=O)c2ccc(F)cc2)c(C(N)=O)c1C	9.41%
CC(C)c1nc2c(c3c1[nH]c1ccccc13)C(=O)CC(C)(C)C2	-5.59%
Cc1nn(C(C)C(=O)N2CCN(Cc3ccc4c(c3)OCO4)CC2)c(=O)c2c1sc1ccccc12 (stereo not drawn)	-1.49%
Cc1ccc2c(c1)N1C(=O)c3ccccc3C1C1=C(O)CC(C)(C)CC1=N2 (stereo not drawn)	2.38%
COc1ccc(OCC(=O)NCc2ccccc2)cc1	-1.29%
Cc1cc(C)nc(NS(=O)(=O)c2ccc(NC(=O)COc3ccc(Br)cc3)cc2)n1	-0.312%
O=C1C(Cl)=C(Nc2cccc(O)c2)C(=O)N1c1cccc(Cl)c1	1.35%
COc1ccc(NC(=O)c2cnn3c(C(F)F)cc(-c4ccc(C)cc4)nc23)cc1OC	9.06%
COc1ccc(C2C3=C(O)CC(C)(C)CC3=Nc3ccccc3N2C(=O)C(C)C)cc1 (stereo not drawn)	1.4%
Cc1ccc(C2=NS(=O)(=O)N(C)C(C(=O)Nc3cc(C)n(CC(=O)N4CCC(C)CC4)n3)=C2)cc1	3.92%
CCc1ccc(CNC(=O)CCn2nc(-c3ccccc3)ccc2=O)cc1	-0.0542%
Nc1c(-c2nc(-c3cccs3)no2)nnn1-c1ccc(F)cc1	3.98%
CCOc1ccc(C2(C)CC(C)(C)N(C(C)=O)c3ccccc32)cc1 (stereo not drawn)	3.44%
COC(=O)c1c(C)oc2cc(Br)c(OS(C)(=O)=O)cc12	9.21%
C=CCNc1nc(-c2ccc(OC)cc2)c(CCC(=O)O)s1	-4.19%
CCCc1nn2c(=O)cc(COc3ccc(/C=C(\C#N)C(N)=O)cc3OC)nc2s1	-0.495%
CCCOc1ccc(C2C(C(=O)OC)=CN(Cc3ccc(OC)cc3)C=C2C(=O)OC)cc1OC	-3.23%
COc1ccc2nc3sc(C(=O)NC4CCCC(C)C4C)cc3cc2c1 (stereo not drawn)	3.07%
Cc1ccc(N2C(=O)CC(NCc3ccc(Cl)c(Cl)c3)C2=O)cc1 (stereo not drawn)	6.48%
CCc1ccc(CNC(=O)CSc2nnc(C)c3c(C)n(-c4ccccc4)nc23)cc1	-1.77%
Brc1cccc(-c2nnc(CN3CCCCCC3)o2)c1	-2.23%
c1ccc(Cc2nnc3sc(-c4ccco4)nn23)cc1	-5.38%
O=C(O)CCNc1nc(-c2ccccc2)nc2ccccc12	5.29%
N=C(N)SCCNC1C2CC3CC(C2)CC1C3 (stereo not drawn)	-3.62%

SMILES	% Inhibition @ 10 uM
COc1nccnc1NS(=O)(=O)c1ccc(NC(=O)c2ccc([N+](=O)[O-])cc2)cc1	4.93%
CCC(C(=O)NCCc1ccc(C)cc1)n1nc(C)c2c(C)n(-c3ccccc3)nc2c1=O (stereo not drawn)	-4.96%
CC1=C(C(=O)OC2CCC(C)CC2)C(c2ccccc2)NC(=O)N1 (stereo not drawn)	2.24%
COc1ccccc1-c1n[nH]c(SCc2ccccn2)n1	6.69%
Cc1nc2cc(-c3ccccc3)nn2c(O)c1Cl	3.12%
CCn1c(=O)c(C(=O)Nc2ccc(Br)cc2)c(O)c2ccccc21	-3.04%
COC(=O)c1cc2ccc3c(c2oc1=O)CN(Cc1ccco1)CO3	11.2%
CN(C)CCNC(=O)Cn1ncc2c3ccccc3nc-2c1O	-1.96%
CC1CCC(N2CCN(C(=O)c3ccco3)CC2)CC1 (stereo not drawn)	1.42%
O=C(COc1ccc(Cl)cc1)NC1CCCCC1NC(=O)COc1ccc(Cl)cc1 (stereo not drawn)	-5.92%
Cc1sc2cc(-c3ccccc3)cn2c1C	-2.83%
Cc1ccc(-c2nc(Cn3cc(C=C4C(=O)N(C)C(=O)N(C)C4=O)c4ccccc43)no2)cc1	0.408%
CC1CC(=O)C2=C(C1)OC(N)=C(C#N)C2c1ccc(Cl)cc1 (stereo not drawn)	-2%
N#CC1=C(N)Oc2[nH]nc(-c3ccc(F)cc3)c2C1c1ccoc1 (stereo not drawn)	3.92%
COc1ccccc1Nc1nc(-c2cccs2)cs1	-8.05%
CC1=C(C(=O)OCCOc2ccccc2)C(c2ccccc2C)CC(=O)N1 (stereo not drawn)	8.96%
CCc1cccc(NC(=O)c2ccoc2C)c1	7.39%
COc1cc(OC)c(OC)cc1/C=C1\SC(N2CCCC(C)C2)=NC1=O (stereo not drawn)	3.67%
CCOC(=O)c1c(NS(=O)(=O)c2ccc(OC)c(OC)c2)sc2c1CCCC2	-5.85%
COc1ccc(C)cc1N(CC(=O)N1CCCCC1)S(=O)(=O)c1ccccc1	5.56%
O=S(=O)(c1ccc(Cl)cc1)c1nc(Cc2ccccc2)oc1N1CCOCC1	-11%
Cc1scc(CN2CC(C)CC(C)C2)c1C (stereo not drawn)	1.5%
CN(Cc1ccccc1)C(=O)Cn1ncn2nc(-c3cccs3)cc2c1=O	-1.3%
O=C(c1ccc(S(=O)(=O)N2CCOCC2)cc1)N1CCN(c2ccccc2)CC1	-1.2%
